Source: the supplement of paper PMC11417369
± gives the standard deviation of the averaged measurements. The list shows a part of the results.

test system: PfAP2-I AP2 domain 3 (GST-tagged); assay: gcPBM binding intensity (ln(normalized median fluorescence intensity)); higher = stronger DNA binding
Summary of the method: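 An Agilent 4 × 180k array carrying primer-extended double-stranded 36-bp intergenic genomic probes and negative controls received GST-tagged P. falciparum DNA-binding domains expressed in E. coli, about 25 μg on average, for 1 h. The binding buffer contained 1× PBS, 1% milk, 0.2 mg/ml BSA, 0.5% salmon testes DNA and 0.03% Triton X-100. Binding intensity is the top Masliner-normalised natural-log median intensity across replicate spots of either probe orientation, read after Alexa488 anti-GST antibody staining and a 488 nm scan.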

Sequence | gcPBM binding intensity (ln)
TGGGATAGATCATTTACACACACAAAAAAAAAAAAA [CACACA_site2140] | 8 ± 0.58
TTTGTCATAAGCAATGCATGTAAGTTTCTGACATTA [TGCATGCA_site1007] | 7.45 ± 0.55
AACAACTATTAATTTACACACATGTATTTATTTTAC [CACACA_site5683] | 8.24 ± 0.57
TCTTATATATTTATTTGTACATATATATATATATAT [XGTACX_site7214] | 9.11 ± 0.73
ATAAAAAAATAAAACACACACATATATATTATATAT [CACACA_site2810] | 7.73 ± 0.44
TAAATAAAAAAACACACACACATATATATATATATA [CACACA_site2269] | 9.62 ± 0.3
AATGCATTGATTGCATTCAAAAAAAAAAAAAAAAAA [XGTACX_negctrl_site597] | 8.31 ± 0.57
AATAAGATATCTACAACACACATTTAATTTTTTTTT [CACACA_site1641] | 7.71 ± 0.5
AATCATAAAGAACATATAATATATATATATATATAT [CACACA_negctrl_site316] | 9.19 ± 0.67
AATTGTCAGAGAATATGTACTTAAGTATTTATTGTT [XGTACX_site1947] | 7.78 ± 0.39
GTCAACAAGAATTAAGTGCATAATTTTTTATTAAAT [GTGCAC_site9492] | 10.3 ± 0.18
AAATTTTATGTATAATGTACACATAAATTTTTCTTT [XGTACX_site7266] | 7.66 ± 0.39
ATACAGATAGGATGCACACATAATTCAAATACAATA [CACACA_site4531] | 8.33 ± 0.37
ATATAATAATAATATTGTACAATAAAAAATATATAT [XGTACX_site7350] | 7.84 ± 0.47
ATGTCAAGAACTGAACGTACAAACTTTGTAATATTG [XGTACX_site8754] | 7.72 ± 0.45
AGTAATAATCGGCATGCATGTCAGTGGTAGTATATA [TGCATGCA_site312] | 7.96 ± 0.6
AAGGAATGCATATAGGTGCTACACATAAAAATAAAA | 8.99 ± 0.76
TTAAGTAGTACATACACACACATATACAAAAAGAAA [CACACA_site3972] | 8.17 ± 0.028
TACTTTTTTCCTATTATGTTTCTTATTTTTATAAAT [XGTACX_negctrl_site561] | 8.02 ± 0.61
TTTTTTTTTGAAAAAAGTACTTAATTTTTAAGAAGA [XGTACX_site3591] | 7.58 ± 0.38
TCTAATAATAAATACACACACATATATATTTATATA [CACACA_site5169] | 7.63 ± 0.39
TATATATATTAAAAAGTGCATTATTCATATTATATA [GTGCAC_site9400] | 11.1 ± 0.73

Sequence | gcPBM binding intensity (ln)
TTACAATTTAATATATGTACATATTTGTGATTTATC [XGTACX_site2911] | 7.94 ± 0.13
TATAATGTTAAATAATGTACATATATTTTTTTTTTT [XGTACX_site4722] | 7.53 ± 0.35
AAAATATCTTGTTACTGTACAAATATAAATAAATAC [XGTACX_site3684] | 7.84 ± 0.59
TTTATTAATAATTATACACACATATAAAATGAATAA [CACACA_site1359] | 7.64 ± 0.39
AATAATAACATACAGACACACACGTAAAAGCACGTG [CACACA_site253] | 9.3 ± 0.33
TTTATATATTAATATGCACACACAAGAAGTAATTAT [CACACA_site9045] | 9.12 ± 0.071
ATATATACGTATGAATGTATATTTGTTTGAATTTTT [CACACA_negctrl_site524] | 7.43 ± 0.5
AATGGGTAAACATACACACACACATATATATATATA [CACACA_site1991] | 9.44 ± 0.29
AGTAAAAAAAAAAAAAAAAAAAAAAAAAAAAAAAAA [GTGCAC_negctrl_site147] | 8.38 ± 1
TATTAATATTTTTGTTGTACTTAAAAATGATGGTAG [XGTACX_site3501] | 8 ± 0.028
CATATACACGAACACACACACATATAAATAAATATA [CACACA_site6379] | 8.045 ± 0.078
TATTATTTTAATTATTCACACATTATTATAAAAATT [CACACA_site5538] | 7.65 ± 0.4
GGAATATTAAAAAAATGTACAAAAAATAATATCCAT [XGTACX_site2596] | 7.84 ± 0.64
AACAAAGTCATACATACATACATATATATATATATA [GTGCAC_negctrl_site632] | 9.34 ± 0.55
TCAATAATAAAAAACACACACAAAAAAAAATAATTA [CACACA_site2798] | 7.46 ± 0.67
ATAATACATACATACATACACACATATATATATATT [CACACA_site3576] | 8.1 ± 0.51
TATTGTATTTCATATTGTACTAAAAAAAAAAAAAAG [XGTACX_site6694] | 7.86 ± 0.11
AAAAAAAAAAAAAAAACACACATACACATATATTTT [CACACA_site7768] | 8.71 ± 0.35
TATATTATTTATAGTAGTACATAAAATATAAATATT [XGTACX_site4417] | 7.64 ± 0.26
TAAAAAAAAAAAAAAACACACATATAAATATTTATA [CACACA_site6702] | 7.27 ± 0.37
ATAAGCATACATATTACACACATATAATATATATAT [CACACA_site2487] | 8.695 ± 0.035
TACATATATATATATGAACACACAAAAAGAATATTT [CACACA_site8421] | 7.85 ± 0.68

Sequence | gcPBM binding intensity (ln)
TTTTATGAGAAACACACACACAAAAAAAAAAAAAAA [CACACA_site4129] | 8.03 ± 0.67
TCTTACTAATTTATGGGGACTTATCACCTATTCAGT [CACACA_negctrl_site652] | 7.74 ± 0.75
AGTGGATAAATTTATTCACACATTTTTTTTTTTTTT [CACACA_site5914] | 9.78 ± 0.42
CATGAATCCTAATAATGTACATAAGAATTCATAATG [XGTACX_site1607] | 7.58 ± 0.5
ACATACATATATTTATGTACATATATATTTATGATT [XGTACX_site6485] | 7.63 ± 0.28
AATTTATATTTATGTGCATGTAATAACTGTATATAA [TGCATGCA_site349] | 8.41 ± 0.45
AAAAAAAGATTATACACACACATATATAAACATACA [CACACA_site4553] | 7.78 ± 0.33
TTTTGGTGTATAGTATTAATATAAAATAATTATATT [CACACA_negctrl_site47] | 7.82 ± 0.55
ATTTTTTTTTCTTGTACACACTATTTTATAATTTTA [CACACA_site6102] | 8.41 ± 0.54
TTAGCTTATCATTACTGTACTTTATTCATATATATG [XGTACX_site8008] | 7.89 ± 0.54
TAAACATTCTTATATAGTACCCATATTAAAATATAC [XGTACX_site8014] | 7.58 ± 0.39
ATGAAAAAAAAAAAAAAAAAAAAAAAAAAAAAAATA [CACACA_negctrl_site1083] | 7.53 ± 0.42
ATTTTTTTGTATATATATGACTGGGGATATAATCAA [GTGCAC_negctrl_site274] | 7.87 ± 0.64
TATTATTTTTCATATGCATGCAAAAATAAAAAAATA [TGCATGCA_site350] | 8.11 ± 0.44
TATAAAAAAAAAAAAAAAAAAAAAAATATATATATA [CACACA_negctrl_site817] | 9.27 ± 0.16
AAAAAAAAAAAAAATTGTACTTAAATATATATATAT [XGTACX_site7604] | 9.285 ± 0.078
AAATTAAAATAAAATAGTACATATATTTATATTTTT [XGTACX_site1687] | 7.59 ± 0.38
TGTGTATAAAAAAAGTGTACACAAAGTAAGACTTTA [XGTACX_site3759] | 8.16 ± 0.45
AGCAACTAAAAAGGATACCCCATTAAAAAAAAATTA [XGTACX_negctrl_site489] | 7.46 ± 0.5
TACCAAAAAACGGCACGCATATGTATAAGAATATGT [XGTACX_negctrl_site470] | 7.96 ± 0.86
AAATATATAAAAGTATGTACATATGAAAAATATATA [XGTACX_site6165] | 8 ± 0.52
TTATATAACATAACGATGTTTCAAAACATATTGTAT [CACACA_negctrl_site997] | 7.71 ± 0.64

Sequence | gcPBM binding intensity (ln)
TTATAAAGAATTAGGAGTACAAATGCATATATAATA [XGTACX_site6580] | 8.22 ± 0.45
TTTAAAATTTAATTTTGTACATATACCAATTTTATT [XGTACX_site448] | 7.63 ± 0.46
ATATAATATATGTTATGTACATAGTTTTTATTGTTC [XGTACX_site7438] | 7.74 ± 0.33
AATATATAATCAGATGAATTTTTTTTTTTTTTTTCA [CACACA_negctrl_site534] | 7.21 ± 0.53
ATATAAATATGAAAAAGTACAAGCCATCAAGAAATC [XGTACX_site8140] | 8.07 ± 0.53
AATTTTTTATTCTTTGCATGTCATCATATATAATAT [TGCATGCA_site549] | 8.12 ± 0.69
ATATAATGTTAGGGTAGAGGAAGTAACTAATATAAA [CACACA_negctrl_site1153] | 7.75 ± 0.77
AATTAGCATAAATGGGTGCTACACAAAAATGCATGT [GTGCAC_site9640] | 8.94 ± 0.45
TATAAATATTATAATTGTACATATTATAAAAATTTT [XGTACX_site2719] | 7.63 ± 0.33
TCTCTTTTTCGTTCATGTACAAATAAATAAAAATAT [XGTACX_site6558] | 8.02 ± 0.26
TTATATATATGACTTTGTACATATACATATTTTTTA [XGTACX_site4669] | 7.47 ± 0.61
GTATATTTTATTTTATGTACATATTCATTTTTTATT [XGTACX_site561] | 8.3 ± 0.4
TATTATATATATGCACGTACAAAAATAATAAAGGTA [XGTACX_site3506] | 9.38 ± 0.13
ATTTTTTTACTGGATCCATATTTGCTTTTTTATTTA [CACACA_negctrl_site1108] | 8.04 ± 0.81
GTGGATATATGTATATGTACATATGTATGTATATAT [XGTACX_site2412] | 8.11 ± 0.49
TTTTTAATTTACTGTCATAGGTACCTTAACTTATCA [CACACA_negctrl_site1664] | 7.7 ± 0.54
TATTAATAATTTTCATGTACATATGTATTTGTAATA [XGTACX_site858] | 7.68 ± 0.2
ATATAATAAATGTCATGTACATACAACATTTTAACT [XGTACX_site7517] | 7.74 ± 0.58
TGAATAAAGAAACACACACACATATATATATATGTA [CACACA_site17] | 7.54 ± 0.44
TACATATACATATTGTGTACATAATAATTATTTATA [XGTACX_site7884] | 7.87 ± 0.39
TACTTATGTTCGCACACATGCAAATTAAAAAAAAAA [TGCATGCA_site1023] | 9.26 ± 0.54
